Measurements published in PubChem BioAssay (Tox21).
The shares of active, inactive and inconclusive entries below differ from those in the screen. For some assays here: No potency is given beside an inconclusive call; the fits are too rough. Calls of active or inactive are those of the source. Unless noted, calls come from the whole dose curve; as a rule, active = well fitted curve in the direction sought with a large enough effect in the repeat runs; inconclusive = weak or mixed curves; inactive = no such curve, though single readings can be large; an effect the other way counts as inactive or inconclusive.

What was measured:
[1] = qHTS assay for identifying genotoxic compounds that show differential cytotoxicity against isogenic chicken DT40 cell lines with known DNA damage response pathways - Rev3 mutant cell line (AID 743014); settings: chicken DT40 Rev3-/- viability, CellTiter-Glo, 40 h; activity, negative = cytotoxicity: at 68.4 µM (top of the series) unless noted; note: nearly all actives have a fitted effect of over 55% in size; note: potency is the fitted concentration of half-maximal effect; for activity, negative = cytotoxicity: % is set by controls: 0 for no effect and ±100 for the full control effect
[2] = qHTS assay for small molecule agonists of the antioxidant response element (ARE) signaling pathway (AID 743202; active = well fitted activation curve with a large enough effect in the signal ratio in the repeat runs, not every such curve was filed as active; inconclusive = weak or mixed curves, or effect the other way; inactive = no such curve, though single readings can be large or run the other way; the % refers to the signal ratio; note: potency is the fitted concentration of half-maximal effect; for activation: % is set by controls: 0 for no effect and ±100 for the full control effect); settings: HepG2 ARE-bla reporter, beta-lactamase FRET, 16 h; activation: at 73.3 µM (top of the series) unless noted
In short: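 After 16 hours of compound treatment at 37 C, HepG2 cells with a stably integrated ARE-driven beta-lactamase reporter were loaded 2 hours at room temperature with LiveBLAzer B/G FRET substrate and fluorescence intensity measured.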

[3] = target: Progesterone receptor (Homo sapiens) (UniProt P06401); assay: qHTS assay to identify small molecule antagonists of the progesterone receptor (PR) signaling pathway (AID 1346795; active = well fitted inhibition curve with a large enough effect in the signal ratio in the repeat runs, not every such curve was filed as active; inconclusive = weak or mixed curves; the % refers to the signal ratio; note: potency is the fitted concentration of half-maximal effect); settings: PR-UAS-bla HEK293T, beta-lactamase FRET ratio, 16 h; activity change, negative = inhibition: at 92.4 µM (top of the series) unless noted
Sequence of UniProt P06401 (P06401 whole entry, looked up): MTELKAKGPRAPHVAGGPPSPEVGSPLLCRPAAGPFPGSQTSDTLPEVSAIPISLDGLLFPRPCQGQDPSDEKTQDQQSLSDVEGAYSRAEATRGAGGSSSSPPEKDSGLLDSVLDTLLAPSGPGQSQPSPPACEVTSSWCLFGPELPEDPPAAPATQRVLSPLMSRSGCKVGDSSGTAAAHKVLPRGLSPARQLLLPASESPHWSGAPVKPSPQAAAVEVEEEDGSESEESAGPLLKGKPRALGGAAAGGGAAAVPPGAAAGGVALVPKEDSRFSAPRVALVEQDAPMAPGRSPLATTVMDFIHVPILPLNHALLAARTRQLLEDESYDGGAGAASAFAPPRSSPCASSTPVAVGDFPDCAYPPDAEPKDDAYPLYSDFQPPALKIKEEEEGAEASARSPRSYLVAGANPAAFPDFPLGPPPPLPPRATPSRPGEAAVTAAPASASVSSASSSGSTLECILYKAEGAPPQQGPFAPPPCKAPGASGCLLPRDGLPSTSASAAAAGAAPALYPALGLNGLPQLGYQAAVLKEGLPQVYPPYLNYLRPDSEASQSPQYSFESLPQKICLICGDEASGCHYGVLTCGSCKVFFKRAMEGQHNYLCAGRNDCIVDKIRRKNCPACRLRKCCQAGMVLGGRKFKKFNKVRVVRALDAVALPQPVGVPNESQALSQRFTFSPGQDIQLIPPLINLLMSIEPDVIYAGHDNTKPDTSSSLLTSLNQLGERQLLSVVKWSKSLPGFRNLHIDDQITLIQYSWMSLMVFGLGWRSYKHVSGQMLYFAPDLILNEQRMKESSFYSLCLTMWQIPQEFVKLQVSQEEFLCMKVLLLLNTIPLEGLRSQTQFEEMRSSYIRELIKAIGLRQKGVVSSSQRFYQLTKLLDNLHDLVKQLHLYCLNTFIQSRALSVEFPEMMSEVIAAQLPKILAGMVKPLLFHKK
In short: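 Stimulus R5020 at 1 nM final; cells HEK293T PR-UAS-bla; medium with 2% charcoal-stripped FBS; compound exposure 16 hr at 37C, 5% CO2; detection by FRET beta-lactamase substrate, 2 hr, room temperature.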

[4] = qHTS assay to identify small molecule agonists of the progesterone receptor (PR) signaling pathway - cell viability counter screen (AID 1346799; calls by dose curve; note: nearly all actives have a fitted effect of over 45% in size; note: potency is the fitted concentration of half-maximal effect)
In short: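 Multiplexed viability read: CellTiter-Glo luminescence, 30 min RT, following LiveBLAzer FRET measurement on PR-UAS-bla HEK293T cells exposed to compounds 16 hr.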

[5] = target: Cytochrome P450 2C9 (Homo sapiens) (UniProt P11712); assay: Cytochrome P450 Family 2 Subfamily C Member 9 (CYP2C9) small molecule antagonists: luciferase reporter qHTS assay (AID 1671198); note: % is set by controls: 0 for no effect and ±100 for the full control effect; nearly all actives have a fitted effect of over 50% in size
Sequence of UniProt P11712 (P11712 whole entry, looked up): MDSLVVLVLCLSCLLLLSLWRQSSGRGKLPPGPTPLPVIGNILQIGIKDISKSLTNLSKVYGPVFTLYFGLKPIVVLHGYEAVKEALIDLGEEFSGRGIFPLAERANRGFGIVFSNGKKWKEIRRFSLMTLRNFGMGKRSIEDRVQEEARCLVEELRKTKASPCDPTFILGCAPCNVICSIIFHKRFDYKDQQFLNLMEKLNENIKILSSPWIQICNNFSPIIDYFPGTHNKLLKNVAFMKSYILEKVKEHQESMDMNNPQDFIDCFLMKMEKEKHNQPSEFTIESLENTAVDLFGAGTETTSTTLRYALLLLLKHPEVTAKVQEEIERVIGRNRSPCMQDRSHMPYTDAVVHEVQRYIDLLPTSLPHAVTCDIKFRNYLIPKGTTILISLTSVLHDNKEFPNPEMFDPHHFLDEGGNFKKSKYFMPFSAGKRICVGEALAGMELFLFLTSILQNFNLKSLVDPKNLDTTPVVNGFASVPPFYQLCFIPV
In short: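 Enzyme-substrate mix preincubated with compound 10 min at room temperature; reaction started with NADPH regeneration solution, 1 h 37C. Luminescent luciferin product read after 20 min detection reagent.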

[6] = qHTS assay for small molecule disruptors of the mitochondrial membrane potential (AID 720635); settings: HepG2 mitochondrial membrane potential, Mito-MPS dye ratio; ratio activity, negative = MMP loss: at 83.2 µM (top of the series) unless noted; note: potency is the fitted concentration of half-maximal effect
In short: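 Mitochondrial membrane potential tracked with Mito-MPS dye, red aggregates (ex 540/em 590 nm) against green monomers (ex 490/em 535 nm). Compound treatment 1 hr at 37C, dye 30 min in HepG2.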

[7] = target: Glucocorticoid receptor (Homo sapiens) (UniProt P04150); assay: qHTS assay to identify small molecule antagonists of the glucocorticoid receptor (GR) signaling pathway (AID 720692; active = well fitted inhibition curve with a large enough effect in the signal ratio in the repeat runs, not every such curve was filed as active; inconclusive = weak or mixed curves, or effect the other way; inactive = no such curve, though single readings can be large or run the other way; the % refers to the signal ratio; note: potency is the fitted concentration of half-maximal effect); settings: GR-bla HeLa, beta-lactamase FRET ratio, dexamethasone-stimulated, 18 h; activity change, negative = inhibition: at 58.5 µM (top of the series) unless noted
Sequence of UniProt P04150 (P04150 whole entry, looked up): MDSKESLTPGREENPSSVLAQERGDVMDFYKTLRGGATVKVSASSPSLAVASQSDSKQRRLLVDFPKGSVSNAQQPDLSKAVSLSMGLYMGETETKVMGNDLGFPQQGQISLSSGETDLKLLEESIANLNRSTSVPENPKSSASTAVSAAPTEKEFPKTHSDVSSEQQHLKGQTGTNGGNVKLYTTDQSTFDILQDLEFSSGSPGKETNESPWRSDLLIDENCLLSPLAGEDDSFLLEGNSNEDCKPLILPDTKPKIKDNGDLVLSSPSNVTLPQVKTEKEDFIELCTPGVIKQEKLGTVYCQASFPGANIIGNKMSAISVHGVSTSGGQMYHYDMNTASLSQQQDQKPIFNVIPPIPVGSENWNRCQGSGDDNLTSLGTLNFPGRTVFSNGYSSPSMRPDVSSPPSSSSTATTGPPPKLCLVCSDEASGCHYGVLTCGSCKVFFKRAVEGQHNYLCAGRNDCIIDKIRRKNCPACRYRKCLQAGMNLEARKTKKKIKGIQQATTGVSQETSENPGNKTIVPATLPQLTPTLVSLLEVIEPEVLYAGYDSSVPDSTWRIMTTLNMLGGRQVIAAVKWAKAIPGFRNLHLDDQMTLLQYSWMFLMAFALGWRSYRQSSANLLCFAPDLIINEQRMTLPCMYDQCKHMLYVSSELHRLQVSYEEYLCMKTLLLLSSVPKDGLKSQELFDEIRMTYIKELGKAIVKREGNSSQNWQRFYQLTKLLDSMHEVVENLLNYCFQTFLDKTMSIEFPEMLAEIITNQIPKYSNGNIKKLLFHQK
In short: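 Read-out: beta-lactamase FRET substrate fluorescence, 2 h at room temperature, in HeLa cells stably carrying a GRE-driven bla reporter. Compounds were co-incubated with 5 nM dexamethasone agonist (final) for 18 h at 37 C.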

[8] = target: Peroxisome proliferator-activated receptor gamma (Homo sapiens) (UniProt P37231); assay: qHTS assay to identify small molecule antagonists of the peroxisome proliferator-activated receptor gamma (PPARg) signaling pathway (AID 743191; calls by dose curve; note: nearly all actives have a fitted effect of over 30% in size; note: potency is the fitted concentration of half-maximal effect); settings: HEK293H PPARg-UAS-bla, beta-lactamase ratio, antagonist, 17 h; ratio activity, negative = inhibition: at 62.6 µM (top of the series) unless noted
Sequence of UniProt P37231 (P37231 whole entry, looked up): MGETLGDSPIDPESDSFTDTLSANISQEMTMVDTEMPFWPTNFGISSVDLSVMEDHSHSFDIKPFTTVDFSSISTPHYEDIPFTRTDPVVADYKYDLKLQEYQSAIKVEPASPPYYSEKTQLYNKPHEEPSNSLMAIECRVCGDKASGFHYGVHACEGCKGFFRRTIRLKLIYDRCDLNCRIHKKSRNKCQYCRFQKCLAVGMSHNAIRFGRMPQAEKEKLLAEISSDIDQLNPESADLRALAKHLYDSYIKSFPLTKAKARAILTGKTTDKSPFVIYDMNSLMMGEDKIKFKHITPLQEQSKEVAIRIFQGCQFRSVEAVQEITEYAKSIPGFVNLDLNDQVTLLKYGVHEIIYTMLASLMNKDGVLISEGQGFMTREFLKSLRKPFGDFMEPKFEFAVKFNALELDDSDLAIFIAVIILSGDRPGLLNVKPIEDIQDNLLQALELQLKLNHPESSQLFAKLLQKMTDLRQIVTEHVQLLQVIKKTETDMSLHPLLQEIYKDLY
In short: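 Beta-lactamase reporter under UAS control in HEK293H PPARg-bla cells; compound treatment 17 h at 37C. Read-out: fluorescence intensity after 1 h room-temperature incubation with LiveBLAzer B/G FRET substrate.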

[9] = qHTS assay to identify small molecule antagonists of the peroxisome proliferator-activated receptor delta (PPARd) signaling pathway - cell viability counter screen (AID 743213); settings: PPARd-bla HEK293H viability, CellTiter-Glo luminescence, 17 h; viability change, negative = cytotoxic: at 62 µM (top of the series) unless noted; note: nearly all actives have a fitted effect of over 50% in size; note: potency is the fitted concentration of half-maximal effect
In short: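 In this counter screen, HEK293H cells carrying a UAS-beta-lactamase reporter are co-treated with test compounds and 300 nM L165041 (final) for 17 h at 37 C; cell viability is quantified by CellTiter-Glo luminescence.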

[10] = target: Vitamin D3 receptor (Homo sapiens) (UniProt P11473); assay: qHTS assay to identify small molecule antagonists of the vitamin D receptor (VDR) signaling pathway (AID 743223; active = well fitted inhibition curve with a large enough effect in the signal ratio in the repeat runs, not every such curve was filed as active; inconclusive = weak or mixed curves, or effect the other way; inactive = no such curve, though single readings can be large or run the other way; the % refers to the signal ratio; note: % is set by controls: 0 for no effect and ±100 for the full control effect); settings: VDR-UAS-bla HEK293T, beta-lactamase FRET ratio, 16 h; activity change, negative = inhibition: at 61 µM (top of the series) unless noted
Sequence of UniProt P11473 (P11473 whole entry, looked up): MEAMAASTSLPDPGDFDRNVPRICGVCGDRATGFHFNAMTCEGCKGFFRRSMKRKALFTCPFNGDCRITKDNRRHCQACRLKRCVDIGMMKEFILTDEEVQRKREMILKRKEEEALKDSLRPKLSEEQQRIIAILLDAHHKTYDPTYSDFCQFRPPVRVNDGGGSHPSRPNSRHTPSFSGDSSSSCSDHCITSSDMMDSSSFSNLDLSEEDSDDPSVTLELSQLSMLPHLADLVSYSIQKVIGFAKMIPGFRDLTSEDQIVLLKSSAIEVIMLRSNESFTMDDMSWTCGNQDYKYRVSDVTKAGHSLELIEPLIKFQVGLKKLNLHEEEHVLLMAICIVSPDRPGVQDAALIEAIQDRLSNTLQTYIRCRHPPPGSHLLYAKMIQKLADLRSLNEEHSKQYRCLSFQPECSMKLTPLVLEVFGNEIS
In short: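 Inhibition of agonist-driven VDR signalling is scored in VDR-bla cells: 3 nM final 1alpha,25-dihydroxyvitamin D3 plus compound, 16 h at 37C, then beta-lactamase detection by FRET substrate fluorescence after 2 h.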

[11] = target: Cytochrome P450 1A2 (Homo sapiens) (UniProt P05177); assay: Cytochrome P450 Family 1 Subfamily A Member 2 (CYP1A2) small molecule antagonists: luciferase reporter qHTS assay (AID 1671199); note: nearly all actives have a fitted effect of over 50% in size; note: potency is the fitted concentration of half-maximal effect
Sequence of UniProt P05177 (P05177 whole entry, looked up): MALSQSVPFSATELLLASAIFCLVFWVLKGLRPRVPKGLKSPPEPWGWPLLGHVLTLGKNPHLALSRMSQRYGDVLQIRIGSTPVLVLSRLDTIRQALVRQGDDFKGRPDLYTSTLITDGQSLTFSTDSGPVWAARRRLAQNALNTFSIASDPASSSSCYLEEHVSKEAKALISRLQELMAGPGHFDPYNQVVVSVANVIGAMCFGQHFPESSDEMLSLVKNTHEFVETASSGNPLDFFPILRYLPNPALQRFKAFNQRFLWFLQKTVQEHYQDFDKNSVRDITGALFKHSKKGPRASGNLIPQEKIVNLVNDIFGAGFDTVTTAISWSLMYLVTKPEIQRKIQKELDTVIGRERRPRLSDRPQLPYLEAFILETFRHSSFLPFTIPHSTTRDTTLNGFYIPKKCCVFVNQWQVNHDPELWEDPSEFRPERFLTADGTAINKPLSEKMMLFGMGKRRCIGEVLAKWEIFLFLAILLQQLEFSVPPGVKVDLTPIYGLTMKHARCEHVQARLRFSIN
In short: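 Luminescence readout (relative luminescence units) after luciferin detection reagent, 20 min RT. Preceded by 1 h room-temperature CYP1A2 reaction with NADPH regeneration solution following 10 min compound preincubation with enzyme and proluciferin substrate. Furafylline positive control.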

[12] = qHTS assay for identifying genotoxic compounds that show differential cytotoxicity against isogenic chicken DT40 cell lines with known DNA damage response pathways - wild type cell line (AID 743012); settings: DT40 wild type chicken cells viability, CellTiter-Glo, 40 h; activity change, negative = cytotoxicity: at 68.4 µM (top of the series) unless noted; note: nearly all actives have a fitted effect of over 60% in size; note: potency is the fitted concentration of half-maximal effect
In short: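 CellTiter-Glo luminescence readout of viability in wild type DT40 cells after 40 h compound exposure at 37 C/5% CO2; 300 cells/well; reagent incubated 30 min at room temperature before reading.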

[13] = qHTS assay to identify small molecule antagonists of the estrogen receptor alpha (ER-alpha) signaling pathway - cell viability counter screen (AID 743074; calls by dose curve;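 note: HEK293 cells carrying ER-alpha-UAS-bla reporter stimulated with 17beta-estradiol; potency is the fitted concentration of half-maximal effect; nearly all actives have a fitted effect of over 45% in size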)
[14] = target: Estrogen receptor (Homo sapiens) (UniProt P03372); assay: qHTS assay to identify small molecule agonists of the estrogen receptor alpha (ER-alpha) signaling pathway using the BG1 cell line (AID 743079); settings: BG1Luc4E2 cells, ERE-luciferase agonist, 22 h; activation: at 70.3 µM (top of the series) unless noted; note: nearly all actives have a fitted effect of over 20% in size; note: potency is the fitted concentration of half-maximal effect
Sequence of UniProt P03372 (P03372 whole entry, looked up): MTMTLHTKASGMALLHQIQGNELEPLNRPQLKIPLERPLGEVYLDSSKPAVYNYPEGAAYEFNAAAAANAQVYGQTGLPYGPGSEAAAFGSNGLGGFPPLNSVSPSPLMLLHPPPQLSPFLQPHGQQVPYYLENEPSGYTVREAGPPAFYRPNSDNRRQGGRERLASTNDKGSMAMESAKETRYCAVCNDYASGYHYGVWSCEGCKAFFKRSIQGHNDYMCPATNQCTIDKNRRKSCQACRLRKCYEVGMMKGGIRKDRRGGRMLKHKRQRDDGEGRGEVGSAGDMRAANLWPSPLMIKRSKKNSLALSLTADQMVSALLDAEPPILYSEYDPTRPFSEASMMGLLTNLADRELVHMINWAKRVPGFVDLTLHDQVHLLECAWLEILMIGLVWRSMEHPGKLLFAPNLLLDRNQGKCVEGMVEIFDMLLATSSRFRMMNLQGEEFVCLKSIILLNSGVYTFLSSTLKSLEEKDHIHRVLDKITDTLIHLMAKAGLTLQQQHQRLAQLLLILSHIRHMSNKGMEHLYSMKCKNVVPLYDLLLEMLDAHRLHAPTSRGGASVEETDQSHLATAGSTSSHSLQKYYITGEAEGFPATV

[15] = qHTS assay to identify small molecule antagonists of the estrogen receptor alpha (ER-alpha) signaling pathway using the BG1 cell line - cell viability counter screen (AID 743081); settings: BG1Luc4E2 viability, CellTiter-Fluor, 22 h; activity change, negative = cytotoxicity: at 70.3 µM (top of the series) unless noted;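 note: compound given together with 17beta-estradiol as the ER stimulus; potency is the fitted concentration of half-maximal effect; nearly all actives have a fitted effect of over 45% in size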
[16] = target: Peroxisome proliferator-activated receptor delta (Homo sapiens) (UniProt Q03181); assay: qHTS assay to identify small molecule antagonists of the peroxisome proliferator-activated receptor delta (PPARd) signaling pathway (AID 743215; active = well fitted inhibition curve with a large enough effect in the signal ratio in the repeat runs, not every such curve was filed as active; inconclusive = weak or mixed curves, or effect the other way; inactive = no such curve, though single readings can be large or run the other way; the % refers to the signal ratio;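 note: cells stimulated with agonist L165041 at 300 nM final during compound exposure; % is set by controls: 0 for no effect and ±100 for the full control effect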); settings: HEK293H PPARd-UAS-bla, beta-lactamase FRET ratio, antagonist, 17 h; ratio activity, negative = inhibition: at 62 µM (top of the series) unless noted
Sequence of UniProt Q03181 (Q03181 whole entry, looked up): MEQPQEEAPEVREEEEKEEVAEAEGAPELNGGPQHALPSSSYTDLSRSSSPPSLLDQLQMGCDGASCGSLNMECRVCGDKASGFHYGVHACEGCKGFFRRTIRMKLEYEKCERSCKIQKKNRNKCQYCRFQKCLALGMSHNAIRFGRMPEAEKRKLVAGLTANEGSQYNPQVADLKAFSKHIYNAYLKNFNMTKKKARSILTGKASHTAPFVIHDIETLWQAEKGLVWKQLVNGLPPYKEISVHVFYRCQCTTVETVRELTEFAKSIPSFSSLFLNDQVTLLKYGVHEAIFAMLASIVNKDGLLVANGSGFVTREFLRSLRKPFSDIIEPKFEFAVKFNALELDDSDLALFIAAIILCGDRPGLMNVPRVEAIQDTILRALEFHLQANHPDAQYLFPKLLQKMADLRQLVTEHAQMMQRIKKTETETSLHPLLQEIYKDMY
In short: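 HEK293H GeneBLAzer PPARd UAS-bla reporter cells; cpd + L165041 300 nM final, 17 h 37 C; LiveBLAzer B/G FRET substrate 2 h RT; fluorescence intensity read-out. Antagonist mode.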

[17] = qHTS assay for small molecule agonists of the p53 signaling pathway (AID 651631; calls by dose curve; note: % is set by controls: 0 for no effect and ±100 for the full control effect; nearly all actives have a fitted effect of over 15% in size); settings: HCT-116 p53RE-bla reporter, beta-lactamase FRET ratio, 16 h; activation: at 73.3 µM (top of the series) unless noted
In short: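 Beta-lactamase reporter activity under p53 response elements was quantified in HCT-116 cells by FRET fluorescence, following 16 h incubation with test compounds at 37 °C and 2 h substrate development at room temperature.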

[18] = target: Cytochrome P450 2C19 (Homo sapiens) (UniProt P33261); assay: Cytochrome P450 Family 2 Subfamily C Member 19 (CYP2C19) small molecule antagonists: luciferase reporter qHTS assay (AID 1671197); note: potency is the fitted concentration of half-maximal effect; nearly all actives have a fitted effect of over 65% in size
In short: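 First, compounds are pinned into enzyme-substrate mix and held 10 min at room temperature. Second, NADPH regeneration solution is added and plates incubate 1 h at 37C. Third, detection reagent is added and luminescence read after 20 min.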

[19] = qHTS assay to identify small molecule antagonists of the thyroid receptor (TR) signaling pathway - cell viability counter screen (AID 743064); settings: GH3.TRE-Luc viability, CellTiter-Fluor, 24 h; activity change, negative = cytotoxic: at 70.3 µM (top of the series) unless noted; note: % is set by controls: 0 for no effect and ±100 for the full control effect; nearly all actives have a fitted effect of over 50% in size
In short: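 CellTiter-Fluor readout, 30 min at 37 °C/5% CO2, following 23.5 h incubation of GH3.TRE-Luc cells with test compound and 1 nM T3 (final).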
Tags give direction and shape of the fitted curve or compound fluorescence and quenching.

For `CC(=O)OCC(=O)[C@@]1(O)CC[C@H]2[C@@H]3CCC4=CC(=O)C=C[C@]4(C)[C@H]3[C@@H](O)C[C@@]21C`, the Potency [1] was “inactive”, the Potency [2] was “inactive” and the Potency [3] was inconclusive [rising, partial curve]. For the same compound, the Potency [4] was inconclusive [cytotoxic, partial curve, poor fit] and the Potency [5] was “inactive”.
In the case of `CCCC(=O)O[C@]1(C(=O)CO)CC[C@H]2[C@@H]3CCC4=CC(=O)CC[C@]4(C)[C@H]3[C@@H](O)C[C@@]21C`, the ratio activity, negative = MMP loss [6] was inconclusive: 12.2%, the Potency [7] was inconclusive [activator, full curve] and the Potency [8] was “inactive”. The activation [2] was inconclusive: -12.9%, the Potency [9] was inconclusive [rising, single point] and the activity change, negative = inhibition [10] was inconclusive: -0.975%. The Potency [4] was inconclusive [rising, partial curve] and the Potency [11] was “inactive”.
In the case of `CC1(C)OC[C@@H](COC(=O)CCc2ccc(OC[C@@H](O)CNCCNC(=O)N3CCOCC3)cc2)O1`, the Potency [6] was inconclusive [single point] and inactive, the Potency [7] was inconclusive [activator, single point] and the Potency [12] was “inactive”. For the same compound, the Potency [13] was inconclusive [cytotoxic, partial curve], the Potency [14] was “inactive” and the Potency [15] was inconclusive [cytotoxic, single point]. The Potency [8] was “inactive”, the activation [2] was inconclusive: 17.3% and the Potency [3] was “inactive”. The Potency [11] was “inactive”.
With `O=C(O)[C@@H]1CSCN1` the Potency [12] was inconclusive [rising, partial curve, poor fit], the Potency [15] was inconclusive [rising, full curve, poor fit] and the ratio activity, negative = inhibition [8] was inconclusive: 11.7%. The Potency [16] was “inactive”.
For `COS(=O)(=O)O`, the Potency [6] was “inactive”, the Potency [2] was “inactive” and the Potency [10] was “inactive”. The Potency [5] was “inactive” and the Potency [11] was inconclusive [inhibitor, partial curve].
With `CCCCCCCCCCC(CO)CCCCCCCC` (centres undefined) the Potency [17] was “inactive”, the Potency [6] was inconclusive [activator, partial curve, poor fit] and the Potency [7] was “inactive”. For the same compound, the Potency [1] was “inactive”, the Potency [8] was inconclusive [falling, partial curve, poor fit] and the ratio activity, negative = inhibition [8] was inconclusive: 15.4%. The Potency [2] was inconclusive, the Potency [16] was “inactive” and the activity change, negative = inhibition [10] was inconclusive: -17.2%.
In the case of `O=C(c1ccc2c(c1)C(=O)OC2=O)c1ccc2c(c1)C(=O)OC2=O`, the ratio activity, negative = inhibition [8] was inconclusive: -3.1%, the Potency [5] was “inactive” and the Potency [11] was inconclusive [inhibitor, partial curve, poor fit].
In the case of `COCCOC(=O)CC#N`, the ratio activity, negative = MMP loss [6] was inconclusive: 28.8%, the activity change, negative = inhibition [7] was inconclusive: 0.364% and the Potency [14] was “inactive”. The ratio activity, negative = inhibition [8] was inconclusive: 16.4%, the Potency [9] was “inactive” and the activity change, negative = inhibition [10] was inconclusive: -7.24%. For the same compound, the Potency [4] was “inactive” and the Potency [18] was inconclusive [inhibitor, full curve].
With `O=CN(CCO)CCO` the activity change, negative = inhibition [7] was inconclusive: 18.4%, the Potency [19] was “inactive” and the activation [2] was inconclusive: -10.1%. For the same compound, the Potency [9] was inconclusive [cytotoxic, single point] and the Potency [5] was “inactive”.
In the case of `c1coc(CNc2ncnc3nc[nH]c23)c1`, the Potency [17] was “inactive”, the ratio activity, negative = MMP loss [6] was inconclusive: -0.477% and the activity change, negative = inhibition [7] was inconclusive: 27.4%. The Potency [12] was inconclusive [cytotoxic, single point], the Potency [1] was inconclusive [cytotoxic, partial curve, poor fit] and the Potency [14] was inconclusive [inhibitor, partial curve, poor fit]. The Potency [8] was inconclusive [activator, partial curve, poor fit], the activation [2] was inconclusive: 1.24% and the Potency [10] was “inactive”. For the same compound, the Potency [4] was inconclusive [rising, single point].
For `CO[C@@]1(NC(=O)Cc2cccs2)C(=O)N2C(C(=O)O)=C(COC(N)=O)CS[C@@H]21`, the Potency [6] was inconclusive [single point], the Potency [15] was inconclusive [cytotoxic, single point] and the Potency [8] was “inactive”. The Potency [9] was “inactive”.
For `CCCCCCCCCCl`, the Potency [6] was “inactive”, the Potency [18] was inconclusive [inhibitor, single point] and the Potency [11] was inconclusive [inhibitor, partial curve].
